Hit rate of the full screen: of about 310,000 compounds, about 11,000 (3.5%) were called active. The shares of active, inactive and inconclusive entries below differ from those in the screen. Calls follow the shape of the dose curve; as a rule, active = well fitted inhibition curve with a large enough effect; inconclusive = small, poorly fitted or top-dose-only effect, or effect the other way; inactive = flat fitted curve, though single readings scatter. Potencies of inconclusive entries are left out as doubtful fits.
assay: VP16 counterscreen qHTS for inhibitors of ROR gamma transcriptional activity; details: Drosophila S2 Gal4-VP16 UAS-luciferase, luminescence, 20 h; activity, negative = inhibition: at 53.6 µM (top of the series);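 also: Gal4-VP16 expression switched on by copper sulfate through the metallothionein promoter; nearly all actives have a fitted effect of over 50% in size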
% is scaled to controls: 0 for no effect and ±100 for the full control effect; potency is read from the fitted curve at half-maximal effect; tags tell the direction and shape of the fitted curve.

| SMILES | Potency | activity, negative = inhibition |
| --- | --- | --- |
| CC(=O)/C(=N/Nc1ccc(Br)cc1)Sc1cccc2cccnc12 | inconclusive [inhibitor, full curve] |  |
| Cc1cccc(Cc2nnc(CCC(=O)N(CC3CC3)CC3CCCO3)o2)c1 (stereo not given) | inconclusive [activator, single point] |  |
| CC12C(=O)N(CCC(=O)O)C(=O)C1C1C=CC2C1 (stereo not given) | inactive |  |
| Cc1cc(C)cc(NS(=O)(=O)c2ccc(Oc3ncc(C(F)(F)F)cc3Cl)cc2)c1 | inconclusive [inhibitor, single point] |  |
| CC(=O)Nc1cc(C(=O)NCc2ccco2)ccc1Sc1ccc(F)cc1 | inconclusive [inhibitor, partial curve, poor fit] |  |
| O=C(NNC(=S)Nc1cccc(C(F)(F)F)c1)c1cccc(Cl)c1 | inconclusive [inhibitor, single point] |  |
| CCCCC1NC(=S)N(C2CCCCC2)C1=O (stereo not given) | inconclusive [inhibitor, single point] |  |
| COC(=O)c1c(NC(=O)c2ccco2)sc(C(=O)N(C)C)c1C | inconclusive [activator, full curve, poor fit] |  |
| COc1ccc(/C=C(/C(=O)c2ccc(Cl)cc2Cl)n2cncn2)cc1 | inactive |  |
| C=CCn1c(=NC(=O)c2sc3ccccc3c2Cl)sc2cc(S(N)(=O)=O)ccc21 | inconclusive [inhibitor, single point] |  |
| CCOC(=O)c1[nH]c(C)c(C(=O)Nc2ccccc2F)c1C | inactive |  |
| CCn1c(SCC(=O)Nc2ccc(Cl)cc2)nc2nc3c(cc2c1=O)CCCC3 | active: 12.6 µM |  |
| O=Cc1ccccc1-c1cn(CCCOCc2ccccc2)nn1 | inactive |  |
| CC1CCc2nc(NC(=O)CN3CCOCC3)sc2C1 (stereo not given) | inactive |  |
| O=C(NCC(=O)N(c1ccccc1F)C(C(=O)NC1CCCC1)c1cccnc1)c1ccco1 (stereo not given) | inactive |  |
| Oc1ccc(/C=N/NC(=S)Nc2cccnc2)c(O)c1 | inconclusive [inhibitor, partial curve] |  |
| COc1ccc(/C=N/n2c(N)nc(-c3ccccc3)c2-c2ccccc2)cc1 | inconclusive [inhibitor, single point] |  |
| CCOCCOC(=O)c1[nH]c2c(c1C)C(=O)CC(c1cc(OC)c(OC)c(OC)c1)C2 (stereo not given) | inconclusive [inhibitor, single point] |  |
| CCc1cc(-c2n[nH]c(=S)n2-c2cccc(C)c2)cs1 | active: 0.562 µM |  |
| C=CCn1c(-c2sccc2C)n[nH]c1=S | inconclusive [inhibitor, single point] |  |
| CCc1ccc(N(C2C=CS(=O)(=O)C2)S(=O)(=O)c2ccccc2)cc1 (stereo not given) | inactive |  |
| COc1ccc(NC(=O)C2CC(=O)N(CCc3ccc(Cl)cc3)C2)cc1 (stereo not given) | inactive |  |
| CCCCc1cc(=O)oc2cc(O)ccc12 |  | inactive: -7.27% [at 10 µM] |
| Oc1ccc(-c2cnns2)c(O)c1 | inconclusive [inhibitor, single point] |  |
| CC1=C(NCCc2ccccc2)CCC1=O | inactive |  |

| SMILES | Potency | activity, negative = inhibition |
| --- | --- | --- |
| O=C(CN1c2ccccc2Sc2ccccc21)NNC(=O)Nc1ccc(Cl)cc1 | inactive |  |
| CC1CCN(C(=O)c2ccc(Br)c(S(=O)(=O)N3CCOCC3)c2)CC1 | inactive |  |
| CC1=C(C(=O)OCc2ccc3c(c2)OCO3)C(c2cccc([N+](=O)[O-])c2)NC(=O)N1 (stereo not given) | inactive |  |
| Cc1nc(SCC(=O)Nc2nc3ccccc3s2)n[nH]1 | inconclusive [inhibitor, single point] |  |
| Fc1ccccc1NC(=S)NC1CCCC1 | inconclusive [inhibitor, single point] |  |
| Cc1cc(C(C)(C)C)ccc1OCCCCN1CCCC1 | inconclusive [inhibitor, single point] |  |
| S=c1[nH]nc(-c2ccco2)n1/N=C/C=C/c1ccco1 | active: 10 µM |  |
| Cc1nnc2c(SC(C)C)nc3ccccc3n12 | inconclusive [inhibitor, single point] |  |
| COCCCN1C(=O)c2ccc(C(=O)NCCc3ccccc3)cc2C1=O | inconclusive [inhibitor, partial curve] |  |
| COCCNC(=S)N/N=C(\C)c1cccc(C(F)(F)F)c1 | active: 5.01 µM |  |
| CCCN(CCC)S(=O)(=O)c1ccc(C(=O)Nc2ccc(OCC(=O)N3CCOCC3)cc2)cc1 | inconclusive [inhibitor, single point] |  |
| Cc1cc(C)cc(C(=O)Nc2ccc(NC(=O)c3cccs3)cc2)c1 | inconclusive [inhibitor, partial curve] |  |
| Cc1cc(C(=O)COC(=O)CC2Sc3ccccc3NC2=O)c(C)n1-c1cccc(C(F)(F)F)c1 (stereo not given) | inconclusive [inhibitor, single point] |  |
| COc1cc2[nH]c(=S)n(Cc3ccccc3)c(=O)c2cc1OC | active: 5.01 µM |  |
| COc1ccc(Cl)cc1C(=O)NC1=NCCS1 | inconclusive [inhibitor, partial curve, poor fit] |  |
| Cc1[nH]c(=S)[nH]c(=O)c1Cc1ccccc1 | inactive |  |
| Oc1c(Cl)cc(Cl)c2c1NCCC2 | active: 5.01 µM |  |
| O=C(CSc1n[nH]c(-c2ccccn2)n1)Nc1ccccc1 | inconclusive [inhibitor, single point] |  |
| COc1cccc2sc(NNC(=O)COc3ccccc3)nc12 | inactive |  |
| CC(/C=C/c1ccccc1)=N\NC(=O)C1CC1(C)c1ccccc1 (stereo not given) | inconclusive [inhibitor, single point] |  |
| COc1cccc(C(=O)Nc2ccc(C(=O)c3ccncc3)cc2)c1 | inactive |  |
| COCCNC(=O)c1cc2c(s1)-c1ccc(Cl)cc1SC2 | inconclusive [activator, full curve] |  |
| C/C(=N\OCC(=O)NC12CC3CC(CC(C3)C1)C2)c1cc2ccccc2o1 | inconclusive [inhibitor, single point] |  |
| COc1ccc(OCC(=O)N2CCN(S(=O)(=O)c3ccccc3[N+](=O)[O-])CC2)cc1 | inactive |  |
| Cc1ccc(NC(=O)c2ncc(Cl)c(Cl)c2Cl)cc1C | inconclusive [activator, single point] |  |

| SMILES | Potency | activity, negative = inhibition |
| --- | --- | --- |
| O=C(Nc1nc(-c2ccccn2)cs1)c1ccc(Br)s1 | active: 1.26 µM |  |
| Cn1c(-c2ccccc2)cnc1SCC(=O)N1CCCc2ccccc21 | inconclusive [inhibitor, single point] |  |
| CC(=O)c1ccc(NC(=S)NC2CCCC(C)C2C)cc1 (stereo not given) | inconclusive [inhibitor, single point] |  |
| Cc1cc(Nc2cccc(C(=O)O)c2)n2ncnc2n1 | inactive |  |
| Cc1ccc2c(Cl)c(C(=O)Nc3cc(C)on3)sc2c1 | inconclusive [inhibitor, single point] |  |
| CCCn1c(=O)c(C(=O)NCCc2ccccc2)c(O)c2ccccc21 | inconclusive [inhibitor, single point] |  |
| Cc1ccc(CSc2ccc3nnc(-c4ccccn4)n3n2)cc1 | inactive |  |
| CCCCCC(=O)Nc1ccc(N2CCN(CC)CC2)c(Cl)c1 | inconclusive [activator, partial curve] |  |
| O=c1c2sc3ccccc3c2[nH]c(=S)n1CCN1CCOCC1 |  | inactive: -1.11% [at 10 µM] |
| C/C(CCc1oc2c(Br)cc(Br)cc2c1-c1ccc(C)o1)=N\O | inconclusive [inhibitor, single point] |  |
| COc1ccc(NC(=O)Nc2ccc(Br)cn2)cc1 | inconclusive [activator, single point] |  |
| COc1cc(S(=O)(=O)NCc2ccccn2)ccc1Cl | inactive |  |
| CCN1C(=O)/C(=C\C=C2/C=CC=CN2CC)SC1=S | inconclusive [inhibitor, single point] |  |
| CC(=O)c1c(NCc2ccccc2)nc(=O)n(-c2ccccc2)c1C | inconclusive [activator, single point] |  |
| Cc1cccc(NC(=S)N2CCN(c3ccccc3)CC2)c1 | inconclusive [inhibitor, single point] |  |
| CC(C)NC(=S)N/N=C/c1ccc2c(c1)OCCO2 | inconclusive [inhibitor, single point] |  |
| Cc1ccc2nc(SCC(=O)Nc3cc(C(C)(C)C)nn3-c3ccccc3)[nH]c2c1 | inconclusive [inhibitor, partial curve] |  |
| Cc1nc(-c2ccc(S(=O)(=O)Nc3ccc(Br)cc3F)cc2)co1 | inactive |  |
| O=C(CCC(=O)N1CCN(S(=O)(=O)c2ccc(Cl)cc2)CC1)Nc1cccc(Br)c1 | inconclusive [inhibitor, single point] |  |
| COc1cccc(-c2cc(C(=O)Nc3c(C)nn(Cc4ccccc4)c3C)no2)c1 | inconclusive [inhibitor, single point] |  |
| COc1ccc(-n2nc(C(=O)NCC(=O)N3CCN(c4ccccc4)CC3)c3ccccc3c2=O)cc1OC | inconclusive [inhibitor, single point] |  |
| NNC(=O)c1cc2ccccc2cc1NS(=O)(=O)c1ccccc1 | inconclusive [inhibitor, single point] |  |
| CN(c1ccccc1)S(=O)(=O)c1cccc(C(=O)Nc2ncn[nH]2)c1 | inconclusive [inhibitor, single point] |  |
| NNC(=O)c1ccc(Oc2cc(Cl)cc(Cl)c2)o1 | inactive |  |
| CC(=O)C(/C=N/c1cc(-c2ccc(C)cc2)nn1-c1ccccc1)=C(\C)O | active: 22.4 µM |  |

From PubChem BioAssay AID2546 (National Center for Advancing Translational Sciences (NCATS), 2010)
